Reference: patent publication US20210323993A1, “Compounds Useful in HIV Therapy” (priority 2018, published 2021)

Legend:
[1] = system: pseudotyped virus (NL4-3 provirus, luciferase reporter), M184V; settings: U373 cells expressing human CD4 and CXCR4 or CCR5; luciferase signal after 3 days of culture
Source text: (§1) A pseudotyped virus assay (PSV) was used to assess the potency of the HIV inhibitor. Replication defective virus was produced by co-transfection of a plasmid containing an NL4-3 provirus [containing a mutation in the envelope open reading frame (ORF) and a luciferase reporter gene replacing the nef ORF] and a CMV-promoter expression plasmid containing an ORF for various HIV gp160 envelope clones. The harvested virus was stored at −80C in small aliquots and the titer of the virus measured to produce a robust signal for antiviral assays.
(§2) The PSV assay was performed by using U373 cells stably transformed to express human CD4, the primary receptor for HIV entry and either human CXCR4 or human CCR5 which are the co-receptors required for HIV entry as target cells for infection. Molecules of interest (including, but not limited to small molecule inhibitors of HIV, neutralizing antibodies of HIV, antibody-drug conjugate inhibitors of HIV, peptide inhibitors of HIV, and various controls) are capable of being diluted into tissue culture media and diluted via serial dilution to create a dose range of concentrations, and this was carried out for Example 1. This dose-range was applied to U373 cells and the pre-made pseudotyped virus added. The amount of luciferase signal produced after 3 days of culture was used to reflect the level of pseudotyped virus infection. An IC50, or the concentration of inhibitor required to reduce PSV infection by 50% from the infection containing no inhibitor was calculated. Assays to measure cytotoxity were performed in parallel to ensure the antiviral activity observed for an inhibitor was distinguishable from reduced target cell viability. IC50 values were determined from a 10 point dose response curve using 3-4-fold serial dilution for each compound, which spans a concentration range >1000 fold.
(§3) These values are plotted against the molar compound concentrations using the standard four parameter logistic equation:
(§4) y=((Vmax *x^n)/(K^n+x^n))+Y2
(§5) Y2=minimum y n=slope factor
(§6) Vmax=maximum y x=compound concentration [M]

[2] = system: pseudotyped virus (NL4-3 provirus, luciferase reporter), WT; experiment: microbe, parasite or virus in culture; settings: Human immunodeficiency virus 1, NL43, 72 h, read-out: WT IC50
Source text: as §1, §2, §3, §4, §5, §6

[3] = system: pseudotyped virus (PSV), WT; experiment: microbe, parasite or virus in culture; settings: for IC50: Human immunodeficiency virus 1, U373 MG; for Fold Change vs EFdA: fold change of the persistence index relative to EFdA; for Persistence Index: ratio of the IC50 determined at 48 and 0 h
Procedure: The PSV assay was adapted to determine the antiviral persistence of each compound. This assay evaluates the ability of each compound to remain active in cells for two days i.e. prevent PSV infection of cells in a dose dependent manner, 48 h after the removal of compound. Duplicate plates of U373 cells were treated with a serial dilution of small molecule inhibitors for 6 h at 37° C. Compounds were removed from cells by washing twice cells with 1×PBS. For baseline group (i.e. immediately after washing or 0 h), cells were infected with prepared PSVs and cultured for three days. For experimental group (48 h), the culture medium is added to the washed cells and the plate incubated at 37° C. for 48 h. After two days of culture, the prepared PSVs were added to the cells and the mixture cultured for three days. The amount of luciferase signal produced after culture was used to reflect the level of pseudo typed virus infection in the baseline group (0 h) and experimental group (48 h) for each compound. An IC50, or the concentration of inhibitor required to reduce PSV infection by 50% from the infection containing no inhibitor was calculated. The persistence index, which is the ratio of the IC50 determined at 48 and 0 h is presented in Table 2 as well as the fold change of the persistence index relative to EFdA [(2R,3S,5R)-5-(6-amino-2-fluoro-9H-purin-9-yl)-2-ethynyl-2-(hydroxymethyl)tetrahydrofuran-3-ol].
Statistical analysis and graphing of the data were performed in JMP 13.2.1 (SAS Institute, Cary, N.C.). A four-parameter logistic Hill Model was fit to % Inhibition and log10 concentration values, separately for each compound, time point and run. A pilot experiment included 2 independent experimental runs and a later follow-up experiment included 4 runs. Quality control criteria based on R^2 and 95% confidence interval ranges of all four parameter estimates were used to exclude curves with poor fits. Using inverse prediction, log10 concentrations were obtained that correspond to 50% Inhibition (log10IC50*) and the log10 persistence index was calculated for each compound and run using the following formula: log10 persistence Index=log10IC50*48 hrs−log10IC50*0 hrs. Next, a linear mixed effects model was fit on log10 persistence index values with a fixed effect for compound and a random effect for experimental run, followed by post hoc contrasts to compare the log10 persistence index of the positive control EFdA to the log10 persistence index of other test compounds. The estimated LSMeans and differences were then back-transformed via 10^Estimate to the original scale and reported as persistence index and fold change respectively. Raw p-values were reported.

SMILES	IC50 [1] [nM]	IC50 [2] [nM]	IC50 ([3]; read-out: WT IC50 at t = 0 h) [nM]	IC50 ([3]; read-out: WT IC50 at t = 48 h) [nM]	Fold Change vs EFdA [3]	Persistence Index [3]
C#C[C@]1(COC(=O)OCC)O[C@@H](n2cnc3c(N)nc(F)nc32)C[C@@H]1O [Example 5, ((2R,3S,5R)-5-(6-amino-2-fluoro-9H-purin-9-yl)-2-ethynyl-3-hydroxytetrahydrofuran-2-yl)methyl ethyl carbonate]	112	19.5				
C#C[C@]1(COCOC(=O)OCCCCCCCCCC)O[C@@H](n2cnc3c(N)nc(F)nc32)C[C@@H]1O [Example 6, (((2R,3S,5R)-5-(6-amino-2-fluoro-9H-purin-9-yl)-2-ethynyl-3-hydroxytetrahydrofuran-2-yl)methoxy)methyl decyl carbonate]	11.1	3.4	2.1	98.6	0.90	47.7
C#C[C@]1(CO)O[C@@H](n2cnc3c(NC(=O)CCCCCCCCCCCCC)nc(F)nc32)C[C@@H]1O [Example 15, N-(9-((2R,4S,5R)-5-ethynyl-4-hydroxy-5-(hydroxymethyl)tetrahydrofuran-2-yl)-2-fluoro-9H-purin-6-yl)tetradecanamide]	7.4	1.4				
C#C[C@]1(COCOC(=O)OC(C)C)O[C@@H](n2cnc3c(N)nc(F)nc32)C[C@@H]1O [Example 2, (((2R,3S,5R)-5-(6-amino-2-fluoro-9H-purin-9-yl)-2-ethynyl-3-hydroxytetrahydrofuran-2-yl)methoxy)methyl isopropyl carbonate]	60	9.5	19.5	532	1.44	29.9
C#C[C@]1(COC(=O)OCCCCCCCCCCCCCCCCCC)O[C@@H](n2cnc3c(N)nc(F)nc32)C[C@@H]1O [Example 13, ((2R,3S,5R)-5-(6-amino-2-fluoro-9H-purin-9-yl)-2-ethynyl-3-hydroxytetrahydrofuran-2-yl)methyl octadecyl carbonate]	41.1	10.4				
C#C[C@]1(CO)O[C@@H](n2cnc3c(NC(=O)CCCCCCCCC)nc(F)nc32)C[C@@H]1O [Example 14, N-(9-((2R,4S,5R)-5-ethynyl-4-hydroxy-5-(hydroxymethyl)tetrahydrofuran-2-yl)-2-fluoro-9H-purin-6-yl)decanamide]	6.1	1.8				
C#C[C@]1(CO)O[C@@H](n2cnc3c(N)nc(F)nc32)C[C@@H]1OC(=O)OCCCCCCCCCCCCCCCCCCCC [Example 10, (2R,3S,5R)-5-(6-amino-2-fluoro-9H-purin-9-yl)-2-ethynyl-2-(hydroxymethyl)tetrahydrofuran-3-yl icosyl carbonate]	> 25000	5400				
C#C[C@]1(CO)O[C@@H](n2cnc3c(N)nc(F)nc32)C[C@@H]1OC(=O)OCCCCCCCCCCCCCCCCCCC [Example 9, (2R,3S,5R)-5-(6-amino-2-fluoro-9H-purin-9-yl)-2-ethynyl-2-(hydroxymethyl)tetrahydrofuran-3-yl nonadecyl carbonate]	19400	2000				
C#C[C@]1(CO)O[C@@H](n2cnc3c(NC(=O)OCC)nc(F)nc32)C[C@@H]1OC(=O)OCC [Example 7, ethyl (9-((2R,4S,5R)-4-((ethoxycarbonyl)oxy)-5-ethynyl-5-(hydroxymethyl)tetrahydrofuran-2-yl)-2-fluoro-9H-purin-6-yl)carbamate]	15000	13300				
C#C[C@]1(COCOC(=O)OCCCCCCCCCCCCCCCC)O[C@@H](n2cnc3c(N)nc(F)nc32)C[C@@H]1O [Example 11, (((2R,3S,5R)-5-(6-amino-2-fluoro-9H-purin-9-yl)-2-ethynyl-3-hydroxytetrahydrofuran-2-yl)methoxy)methyl hexadecyl carbonate]	19	6.5				
C#C[C@]1(COC(=O)OCCCCCCCCCCCC)O[C@@H](n2cnc3c(N)nc(F)nc32)C[C@@H]1O [Example 4, ((2R,3S,5R)-5-(6-amino-2-fluoro-9H-purin-9-yl)-2-ethynyl-3-hydroxytetrahydrofuran-2-yl)methyl dodecyl carbonate]	10.9	2.5	1.1	21.9	2.25	19.1
C#C[C@]1(CO)O[C@@H](n2cnc3c(NC(=O)OCC)nc(F)nc32)C[C@@H]1O [Example 3, ethyl (9-((2R,4S,5R)-5-ethynyl-4-hydroxy-5-(hydroxymethyl)tetrahydrofuran-2-yl)-2-fluoro-9H-purin-6-yl)carbamate]	6290	1540				
C#C[C@]1(CO)O[C@@H](n2cnc3c(N)nc(F)nc32)C[C@@H]1OC(=O)OCC [Example 8, (2R,3S,5R)-5-(6-amino-2-fluoro-9H-purin-9-yl)-2-ethynyl-2-(hydroxymethyl)tetrahydrofuran-3-yl ethyl carbonate]	185	28.9				
C#C[C@]1(CO)O[C@@H](n2cnc3c(N)nc(F)nc32)C[C@@H]1O [EFdA, (2R,3S,5R)-5-(6-amino-2-fluoro-9H-purin-9-yl)-2-ethynyl-2-(hydroxymethyl)tetrahydrofuran-3-ol, reference compound]	35.1	6.5	7.4		1.00	42.9
C#C[C@]1(COCOC(=O)C(C)C)O[C@@H](n2cnc3c(N)nc(F)nc32)C[C@@H]1O [Example 1, (((2R,3S,5R)-5-(6-amino-2-fluoro-9H-purin-9-yl)-2-ethynyl-3-hydroxytetrahydrofuran-2-yl)methoxy)methyl isobutyrate]	49.8	8.5				

Read-outs that look alike come from different tables or passages of the source.
